# Assay results from PubChem BioAssay AID504332 (National Center for Advancing Translational Sciences (NCATS), 2011).
# Several values for one entry are separate records, joined by “and”; a condition that tells them apart may be missing. Equal values may be shown once. The campaign covered roughly 350,000 compounds. About 31,000 (8.9%) were called active. Inconclusive results, whose numbers are uncertain, are shown with a selection of clear calls. Calls follow the shape of the dose curve; as a rule, active = well fitted inhibition curve with a large enough effect; inconclusive = small, poorly fitted or top-dose-only effect; inactive = no such curve, though single readings can be large or run the other way. A potency beside an inconclusive call is a rough fit, not a confirmed value. Some compounds were tested as several samples or in several runs, with calls that do not always agree.
# Molecular target: Histone-lysine N-methyltransferase EHMT2 (Homo sapiens) (UniProt Q96KQ7)
# Assay: qHTS Assay for Inhibitors of Histone Lysine Methyltransferase G9a; also: nearly all actives have a fitted effect of over 75% in size
# Conditions: G9a H3K9 monomethylation, AlphaScreen, 2 h; activity, negative = inhibition: at 59 µM (top of the series) unless noted
# Method in brief: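 Using a bead-based AlphaScreen, monomethylated H3K9 product from 2 h room-temperature reactions (G9a 20 nM, peptide 500 nM, SAM 20 uM) was detected with 0.5 ug/mL rabbit anti-H3K9me1 antibody.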
# % is scaled to controls: 0 for no effect and ±100 for the full control effect; potency is read from the fitted curve at half-maximal effect; tags tell the direction and shape of the fitted curve.
# Sequence of UniProt Q96KQ7 (Q96KQ7 whole entry, looked up): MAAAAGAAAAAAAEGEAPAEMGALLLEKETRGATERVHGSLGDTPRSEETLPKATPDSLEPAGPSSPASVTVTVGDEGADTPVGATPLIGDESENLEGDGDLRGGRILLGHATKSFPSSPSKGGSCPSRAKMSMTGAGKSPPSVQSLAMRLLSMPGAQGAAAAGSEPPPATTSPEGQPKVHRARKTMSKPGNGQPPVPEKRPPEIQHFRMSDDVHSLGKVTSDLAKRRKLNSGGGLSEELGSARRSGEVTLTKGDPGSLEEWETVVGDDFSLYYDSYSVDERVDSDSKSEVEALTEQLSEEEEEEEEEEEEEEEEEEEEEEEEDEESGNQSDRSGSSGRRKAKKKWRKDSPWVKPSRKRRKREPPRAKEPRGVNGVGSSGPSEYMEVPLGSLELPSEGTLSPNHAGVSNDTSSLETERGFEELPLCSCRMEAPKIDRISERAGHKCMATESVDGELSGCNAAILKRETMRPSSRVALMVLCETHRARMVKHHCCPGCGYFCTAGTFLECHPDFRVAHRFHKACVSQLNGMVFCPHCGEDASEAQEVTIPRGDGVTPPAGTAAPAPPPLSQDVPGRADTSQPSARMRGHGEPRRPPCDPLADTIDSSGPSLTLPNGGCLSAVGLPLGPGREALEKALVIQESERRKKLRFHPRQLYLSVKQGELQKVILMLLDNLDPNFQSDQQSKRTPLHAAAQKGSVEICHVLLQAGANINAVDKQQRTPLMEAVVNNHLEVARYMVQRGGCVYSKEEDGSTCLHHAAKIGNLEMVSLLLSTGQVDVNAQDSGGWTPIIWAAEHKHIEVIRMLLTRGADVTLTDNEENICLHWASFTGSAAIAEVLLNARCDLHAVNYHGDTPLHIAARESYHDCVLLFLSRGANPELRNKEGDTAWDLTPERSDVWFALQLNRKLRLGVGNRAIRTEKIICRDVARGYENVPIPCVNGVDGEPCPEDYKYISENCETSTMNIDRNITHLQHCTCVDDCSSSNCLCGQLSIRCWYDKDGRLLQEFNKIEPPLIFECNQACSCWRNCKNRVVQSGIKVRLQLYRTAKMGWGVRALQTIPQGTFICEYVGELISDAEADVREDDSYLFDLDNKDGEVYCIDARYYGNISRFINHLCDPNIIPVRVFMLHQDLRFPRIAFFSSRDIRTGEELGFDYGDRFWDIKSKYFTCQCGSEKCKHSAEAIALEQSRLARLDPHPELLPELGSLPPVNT
Compound,Potency,"activity, negative = inhibition"
Oc1ccc2[nH]cc(CCCCN3CC=C(c4ccccc4)CC3)c2c1,"inconclusive: 2.82 µM [inhibitor, partial curve, poor fit]",–
C/C(CC(=O)Nc1cc(C)ccn1)=N\NC(=O)c1ccncc1,"inconclusive: 35.5 µM [inhibitor, partial curve, poor fit]",–
COC(=O)C(O)(c1c[nH]c2ccccc12)C(F)(F)F (stereo not drawn),–,inactive: 7.68% [at 102 µM]
Cc1oc(-c2ccc(Cl)cc2)nc1CN1C(=O)CN=C(c2ccccc2)c2cc(Cl)ccc21,"inconclusive: 39.8 µM [inhibitor, partial curve, poor fit]",–
c1cncc(C2Nc3cccc4cccc(c34)N2)c1,active: 11.2 µM,inactive: -8.56% [at 12.7 µM]
CCOc1cc2c(cc1OCC)-n1cccc1C(c1ccccc1F)NC2 (stereo not drawn),"inconclusive: 12.6 µM [inhibitor, single point]",–
Cc1sc2nc(COC(=O)Cc3ccccc3)[nH]c(=O)c2c1C,–,inactive: -11.9% [at 102 µM]
O=c1cc(C2CCNCC2)[nH][nH]1,"inconclusive: 89.1 µM [inhibitor, single point]",–
CCCCC(=O)N/N=C/c1c(O)n(-c2cccc3ccccc23)c(=O)[nH]c1=O,–,inactive: 19.9% [at 102 µM]
C=C(C)C1CCC(C)=CC1c1c(O)cc(O)cc1CCCCC (stereo not drawn),"inconclusive: 20 µM [inhibitor, single point]",–
Clc1cncc(N2CCNCC2)n1,–,inactive: 18.9%
O=c1[nH]c(=O)n(Cc2ccco2)c(O)c1/C=N/N1CCCCCC1,"inconclusive: 56.2 µM [inhibitor, single point]",–
NCC1(c2ccc3c(c2)OCCO3)CCCC1,"inconclusive: 17.8 µM [inhibitor, partial curve, poor fit]",–
CN1C(=O)CN=C(c2ccc(Cl)cc2)c2cc(Cl)ccc21,"inconclusive: 39.8 µM [inhibitor, single point]",–
CC(N)Cc1ccc(O)cc1 (stereo not drawn),–,inactive: -33.9% [at 2.33 µM]
Cc1ccc(-n2c(O)c(/C=N/NC(=O)c3ccncc3)c(=O)[nH]c2=O)cc1,"inconclusive: 79.4 µM [inhibitor, single point]",–
CCc1ccc(N2C(=O)CC(=O)NC2=O)cc1,"inconclusive: 79.4 µM [inhibitor, single point]",–
NC(=O)Cn1cc(C=C2C(=O)NC(=O)NC2=O)c2ccccc21,"inconclusive: 89.1 µM [inhibitor, single point]",–
C=CCN1C(=O)/C(=C/c2ccc(Br)s2)C(=O)NC1=S,active: 3.16 µM,–
Cn1c(CNC(=O)c2ccco2)nnc1SCC(=O)N1c2ccccc2Sc2ccccc21,"inconclusive: 0.398 µM [inhibitor, partial curve, poor fit]",–
CC1=NN(c2ccccc2)C(=O)C1/C=C1\C(=O)NC(=O)N(c2cc(C)cc(C)c2)C1=O (stereo not drawn),"inconclusive: 39.8 µM [inhibitor, single point]",–
CN(C(=O)Cc1ccc(Cl)c(Cl)c1)C(CN1CCCC1)c1cccc(N=C=S)c1 (stereo not drawn),active: 17.8 µM,–
N=C1c2ccccc2CN1NC(=O)c1ccccc1,"inconclusive: 0.141 µM [inhibitor, full curve, poor fit]",–
Clc1ccc2c(c1)CCc1cccnc1C2=C1CCNCC1,inactive,–

Compound,Potency,"activity, negative = inhibition"
CCN(CC)P(c1n(C)cc[n+]1C)N(CC)CC,"inconclusive: 89.1 µM [inhibitor, single point]",–
CCOC(=O)CC(SP(=S)(OC)OC)C(=O)OCC (stereo not drawn),"inconclusive: 3.16 µM [inhibitor, partial curve, poor fit]",–
c1ccc(CNCCc2ccc3c(c2)OCO3)nc1,active: 1.78 µM,–
CC1=CC(=Cc2sc3ccccc3[n+]2C)C=C(C)O1,active: 50.1 µM,–
O=C(/C=C/c1c[nH]c2ccccc12)c1c(O)n(CCc2ccccc2)c(=O)[nH]c1=O,"inconclusive: 56.2 µM [inhibitor, partial curve]",–
Clc1ccccc1CN1CCN(c2ccccc2Cl)CC1,active: 12.6 µM,–
N/C(=N\[N+](=O)[O-])N/N=C/c1ccc(O)cc1,–,inactive: 3.11% [at 102 µM]
C=CCSSCC=C,–,inconclusive: -64.8% [inhibitor] [at 2.33 µM]
CC1N(O)C2CCCCCC2N1O (stereo not drawn),"inconclusive: 1.58 µM [inhibitor, single point]",–
O=C1CC(=O)N(c2ccccc2)C(=O)N1c1ccccc1,"inconclusive: 14.1 µM [inhibitor, single point]",–
CCC(CC)C1C(C#N)=C(N)Oc2c1c(=O)oc1ccccc21 (stereo not drawn),"inconclusive: 39.8 µM [inhibitor, single point]",–
CCOC(=O)C1(CCc2ccccc2)CCN(Cc2ccc3c(c2)OCCO3)CC1,–,inactive: 4.32% [at 102 µM]
O=C(Nc1ccc2c(c1)OCO2)c1cccn(Cc2ccc(F)cc2)c1=O,"inconclusive: 3.55 µM [inhibitor, partial curve, poor fit]",–
Cc1ccc(C2=NCC(=O)Nc3ccc(Br)cc32)cc1,–,inactive: 28.9% [at 0.501 µM]
Cc1ccc(N=Cc2c(O)n(C)c(=O)n(C)c2=O)nc1,"inconclusive: 35.5 µM [inhibitor, single point]",–
COc1ccc(C2C=C(c3ccccc3)Nc3nc(NC(=O)/C=C/c4ccccc4Cl)nn32)cc1 (stereo not drawn),"inconclusive: 39.8 µM [inhibitor, partial curve, poor fit]",–
COC(=NC1CCCC1)C(O)c1c[nH]c2ccccc12 (stereo not drawn),–,inactive: -6.48%
CCOc1cccc(CNC2CN3CCC2CC3)c1 (stereo not drawn),"inconclusive: 89.1 µM [inhibitor, single point]",–
O=c1cccc2n1CC1CC2CN(c2ncnc3c2cnn3-c2ccc(Cl)cc2)C1 (stereo not drawn),"inconclusive: 89.1 µM [inhibitor, single point]",–
O=C(C(=O)N1CC=C(c2ccccc2)CC1)c1c[nH]c2ccccc12,"inconclusive: 100 µM [inhibitor, single point]",–
C[C@@H]1O[C@@H](OC2CC(O)C3(CO)C4C(CCC3(O)C2)C2(O)CCC(C3=CC(=O)OC3)C2(C)C[C@H]4O)[C@H](O)[C@H](O)[C@H]1O (stereo partly drawn),–,inactive: 29.1%
COc1ccc(OC)c(N2C(=O)CC(=O)NC2=O)c1,"inconclusive: 89.1 µM [inhibitor, single point]",–
CCn1cc(C(=O)NCCc2ccc(OC)c(OC)c2)c(=O)c2cc(S(=O)(=O)N(C)C3CCCCC3)ccc21,"inconclusive: 39.8 µM [inhibitor, partial curve, poor fit]",–
O=c1[nH]c(=S)n(-c2ccccc2F)c(O)c1C=NCCN1CCNCC1,"inconclusive: 79.4 µM [inhibitor, single point]",–

Compound,Potency,"activity, negative = inhibition"
Cc1ccc(-n2c(O)c(/C=N/NC(=O)c3ccncc3)c(=O)[nH]c2=O)cc1C,"inconclusive: 89.1 µM [inhibitor, single point]",–
CN1C(=O)C(=Cc2ccccc2OCc2ccc(Cl)cc2)C(=O)N(C)C1=O,–,inactive: -13.5%
O=[N+]([O-])c1ccc(CN2CC=C(c3ccccc3)CC2)cc1,"inconclusive: 89.1 µM [inhibitor, single point]",–
CN(C)CC1CCCCC1OC(=O)Cc1ccc(Cl)c([N+](=O)[O-])c1 (stereo not drawn),"inconclusive: 25.1 µM [inhibitor, single point]",–
CCOC(=O)C1CCN(Cc2coc3ccc(Cl)cc3c2=O)CC1,active: 3.16 µM,–
CCCCC/C=C\C/C=C\C/C=C\C/C=C\CCCCCC(=O)NCCO,inactive and active: 12.6 µM,–
Cn1cc[n+](C)c1P(=S)(c1ccccc1)c1ccccc1,"inconclusive: 56.2 µM [inhibitor, partial curve, poor fit]",–
Cc1nc2nc(SCC(=O)N3CCC4(CC3)OCCO4)nn2c(C)c1Cc1ccccc1,"inconclusive: 79.4 µM [inhibitor, single point]",–
CCCC(c1nnnn1Cc1cccs1)N1CCN(c2nc3ccccc3s2)CC1 (stereo not drawn),"inconclusive: 31.6 µM [inhibitor, single point]",–
O=C(Nc1ccc(F)cc1)Oc1ccc[nH]c1=O,"inconclusive: 4.47 µM [inhibitor, single point]",–
NCCc1c[nH]c2ccc(OCc3ccccc3)cc12,active: 50.1 µM,–
COC(=O)COc1ccc(/C=C2\C(=O)NC(=S)N(c3ccc(C)cc3)C2=O)cc1OC,active: 11.2 µM,–
CCCCCCn1c(O)c(C=NC2CCCCC2N)c(=O)[nH]c1=O (stereo not drawn),–,inactive: -2% [at 102 µM]
OC1/C(=C/c2ccc(C(F)(F)F)cc2)N2CCC1CC2 (stereo not drawn),–,inactive: 2.96% [at 102 µM]
COc1ccc(CN2CCN(C(=O)Cc3ccccc3)CC2)c(OC)c1,active: 20 µM,–
CCOP(=O)(OCC)C(O)c1ccc2c(c1)OCO2 (stereo not drawn),–,inactive: 9.02% [at 102 µM]
O=C(c1ccccc1)C1CCCN(Cc2nc(-c3cnccn3)no2)C1 (stereo not drawn),"inconclusive: 28.2 µM [inhibitor, partial curve, poor fit]",–
Cc1cccc(N2C(=O)/C(=C/c3ccc(CN(CCC#N)S(C)(=O)=O)o3)C(=O)NC2=S)c1,"inconclusive: 1.12 µM [inhibitor, single point]",–
CCOP(=O)(Cc1cc(C(C)=O)c(C)o1)OCC,active: 8.91 µM,–
CCn1c(C)cc(/C=C2\C(=O)NC(=O)N(c3ccccc3C)C2=O)c1C,"inconclusive: 44.7 µM [inhibitor, partial curve, poor fit]",–
COc1ccc(OC)c(CN2CCN(C(=O)Cc3ccccc3)CC2)c1,active: 5.01 µM,–
COc1ccc(OCCOc2cccc(C=C3C(=O)NC(=O)NC3=O)c2)cc1,"inconclusive: 25.1 µM [inhibitor, single point]",–
O=C1NC(=S)NC(=O)C1C/C=C/c1ccccc1,active: 7.94 µM,–
O=C(Nc1ccc2c(c1)OCCO2)c1cccn(Cc2cccc([N+](=O)[O-])c2)c1=O,"inconclusive: 11.2 µM [inhibitor, partial curve, poor fit]",–
